Where “and” joins values, the source holds several entries; their conditions need not be identical. Identical values can stand only once. The shares of active, inactive and inconclusive entries below differ from those in the screen. Potencies of inconclusive entries are doubtful fits and often do not repeat. Calls of active or inactive are those of the source. Calls come from the whole dose curve; as a rule, active = well fitted cell-killing curve with a large enough effect; inconclusive = small, poorly fitted or top-dose-only effect, or effect the other way; inactive = no such curve, though single readings can be large or run the other way.
assay: Viability qHTS for spleen associated tyrosine kinase inhibitor (SYKi) naive MV4-11 cells (AID 1963823); details: MV4-11 AML viability, CellTiter-Glo luminescence, 72 h; viability (% of control): at 45 µM (top of the series); note: nearly all actives have a fitted effect of over 40% in size
Outline: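 In this viability screen, compounds acted on SYK inhibitor naive MV4-11 cells for three days (72 hr, 37 C). Remaining viable cells were measured by CellTiter-Glo luminescence following a 10 min room-temperature development.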
Potency is the fitted concentration of half-maximal effect; tags give direction and shape of the fitted curve.

SMILES	Potency	viability (% of control)
O=C(Nc1ccc(S(=O)(=O)Nc2ccccc2Cl)c(Cl)c1)c1ccccn1	inactive	
CCOC(=O)N1CCC(N2CCC[C@@H](NC(=O)c3ccccc3C)C2)CC1	active: 16.4 µM	
C=C1C[C@@]23CCC4[C@@](C)(CCC[C@@]4(C)C(=O)OC)C2CC[C@@H]1C3 (some centres undefined)	inconclusive: 12.8 µM [cytotoxic, partial curve, poor fit]	
O=C(NCCCCN1CCN(c2cccc(Cl)c2Cl)CC1)c1cc2ccccc2s1	active: 23.1 µM	
C[C@@H]1CC[C@]2(C(=O)O[C@@H]3O[C@H](CO)[C@@H](O)[C@H](O)[C@H]3O)CC[C@]3(C)C(=CCC4[C@@]5(C)C[C@@H](O)[C@H](O)[C@](C)(C(=O)O)C5CC[C@]43C)[C@@H]2[C@]1(C)O (some centres undefined)	inactive	
Cc1ccc(NS(=O)(=O)c2cc3c(cc2Cl)CCC(=O)N3)cc1Cl	inconclusive: 11.6 µM [cytotoxic, partial curve]	
C/C=C(/C)C(=O)O[C@H]1C=C(C)C[C@H](OC(=O)c2ccc(O)cc2)C2[C@](O)(C(C)C)CC[C@@]21C (some centres undefined)	inconclusive: 5.44 µM [cytotoxic, single point]	
C=C[C@H]1[C@H](O[C@@H]2O[C@H](CO)[C@@H](O)[C@H](O)[C@H]2O)OC=C(C(=O)OC)[C@H]1CC(=O)O	inactive	
O=C(O)Cc1cn([C@@H]2O[C@H](CO)[C@@H](O)[C@H](O)[C@H]2O[C@@H]2O[C@H](CO)[C@@H](O)[C@H](O)[C@H]2O)c2ccccc12	inactive	
COc1cc2ncc(-c3ccccc3)nc2cc1OC	active: 3.66 µM	
N#CCc1ccc(O)cc1O[C@@H]1O[C@H](CO)[C@@H](O)[C@H](O)[C@H]1O	inactive	
C/C=C/C1=CC2=C(CO1)C(=O)C(C)(O)C(OC(=O)c1c(C)cc(OC)cc1O)C2 (centres undefined)	active: 6.4 µM	
Cc1noc(C)c1-c1ccc(-c2cc(C(N)=O)c(NC(N)=O)s2)c(O[C@H]2CCNC2)c1	active: 2.31 µM	
O=c1c(-c2ccc(O)cc2)coc2c([C@@H]3O[C@H](CO)[C@@H](O)[C@H](O)[C@H]3O)c(O)ccc12	inactive	
Cc1nc2ccc(CN(C)c3ccc(C(=O)NC(CCC(=O)O)C(=O)O)s3)cc2c(=O)[nH]1 (centres undefined)	active: 0.0065 µM	
C[C@@H]1O[C@@H](O[C@H]2[C@H](O)[C@@H](O[C@@H]3O[C@H](CO)[C@H](O)[C@H](O)[C@H]3O)[C@H](O[C@H]3CC[C@@]4(C)C(CC[C@]5(C)C4CC=C4[C@@H]6CC(C)(C)CC[C@]6(C(=O)O[C@@H]6O[C@H](CO)[C@@H](O)[C@H](O)[C@H]6O)CC[C@]45C)C3(C)C)O[C@@H]2C(=O)O)[C@H](O)[C@H](O)[C@H]1O (some centres undefined)		inactive: 82.7% [at 9.25 µM]
C=C[C@H](/C=C\c1ccc(O)cc1)c1ccc(O)cc1	active: 18.4 µM	
CCNCCc1ccc(CN(CC)c2cc(OC)ccc2[C@@H]2CCc3cc(O)ccc3C2)cc1	active: 2.35 µM	
OC[C@H]1O[C@@H](O[C@H]2[C@H](OCc3ccccc3)O[C@H](CO[C@@H]3OC[C@@H](O)[C@H](O)[C@H]3O)[C@@H](O)[C@@H]2O)[C@H](O)[C@@H](O)[C@@H]1O	inconclusive: 3.17 µM [cytotoxic, single point]	
Cc1c(CN2CCN(C(=O)C(C)O)CC2)sc2c(N3CCOCC3)nc(-c3cnc(N)nc3)nc12 (centres undefined)	inconclusive: 0.146 µM [cytotoxic, full curve]	

SMILES	Potency	viability (% of control)
CC1OC(O[C@H]2[C@@H](O)C[C@@]3(C)C([C@H](O)C[C@]4(C)C3CC=C3C5CC(C)(C)CC[C@]5(C(=O)OC5OC(CO)C(O)C(O)C5OC5OCC(OC6OCC(OC7OCC(O)C(O)C7O)C(O)C6O)C(OC6OCC(O)(CO)C6O)C5O)CC[C@]34C)[C@]2(C)CO)C(O)C(O)C1O (some centres undefined)	inconclusive: 0.0123 µM [cytotoxic, single point]	
CC(C)n1c(=O)cc(N[C@@H](C)c2ccccc2)[nH]c1=O	inconclusive: 11.8 µM [cytotoxic, partial curve]	
C=C1C(=O)OC2C1C(O)CC1(C)C(O)CCC(C=O)C21 (centres undefined)	inconclusive: 25.9 µM [cytotoxic, single point]	
C/C=C(\C)C(=O)OC1C(C)C2(O)C3C=C(C)C(=O)C3CC(CO)=CC2C2C(C)(C)C12OC(C)=O (centres undefined)	inconclusive: 0.0893 µM [cytotoxic, full curve, poor fit]	
N#CCC(C1CCCC1)n1cc(-c2ncnc3[nH]ccc23)cn1 (centres undefined)	active: 10.3 µM	
O=C(O[C@H]1[C@@H]2C=CO[C@@H](O[C@@H]3O[C@H](CO)[C@@H](O)[C@H](O)[C@H]3O)[C@@H]2[C@@]2(CO)O[C@@H]12)c1ccc(O)c(O)c1	inactive	
COc1cc2nc(N3CCN(C)CC3)nc(NC3CCN(Cc4ccccc4)CC3)c2cc1OC	inconclusive: 2.59 µM [cytotoxic, full curve]	
CN(C)CCCOc1nn(Cc2ccccc2)c2ccccc12	inactive and inconclusive: 10.3 µM [cytotoxic, partial curve]	
CCNC(=O)Nc1ncc(-c2cc(-c3c(C)cc(OC)cc3C)nc(-c3cnccn3)n2)s1	inactive	
CN(C)CCNC(=O)c1cccn2c(=O)c3cc4ccccc4cc3nc12	active: 0.299 µM	
CC(C)n1cnc2c(Nc3cccc(Cl)c3)nc(NCCO)nc21	inconclusive: 1.64 µM [cytotoxic, full curve]	
COc1ccc(NS(=O)(=O)c2sc3ccc(Cl)cc3c2C)cc1N1CCNCC1	inconclusive: 18.4 µM [cytotoxic, partial curve]	
CC1(C)CC[C@]2(C(=O)O[C@@H]3O[C@H](CO)[C@@H](O)[C@H](O)[C@H]3O)CC[C@]3(C)C(=CCC4[C@@]5(C)CC[C@H](O[C@@H]6O[C@H](C(=O)O)[C@H](O)[C@H](O)[C@H]6O)C(C)(C)C5CC[C@]43C)[C@@H]2C1 (some centres undefined)	inconclusive: 4.85 µM [cytotoxic, partial curve]	
COc1ccc(C2(O)c3c(ccc4c3OC(C)(CCC=C(C)C)C=C4)NC(=O)C2OC)cc1 (centres undefined)	inactive	
COC(=O)C1=CO[C@@H](O[C@@H]2O[C@H](CO)[C@@H](O)[C@H](O)[C@H]2O)[C@H]2[C@@H]1C=C[C@]21C=C([C@H](C)OC(=O)/C=C/c2ccc(O[C@@H]3O[C@H](CO)[C@@H](O)[C@H](O)[C@H]3O)cc2)C(=O)O1	inactive	
CC(C)(N)c1cc(C(=O)N[C@@H]2CCc3ccc(Oc4ccnc5c4CCC(=O)N5)cc3C2)cc(C(F)(F)F)c1	active: 0.92 µM	
CC(=O)OC[C@]12[C@H](OC(C)=O)C(=O)[C@@H]3[C@@H](O)[C@@]14O[C@@]3(C)COC(=O)c1cccnc1[C@@H](C)[C@H](C)C(=O)O[C@@H]([C@H](O)[C@@H]2OC(C)=O)[C@]4(C)O	active: 1.72 µM	
O=[N+]([O-])c1ccc(-[n+]2nc(-c3ccccc3)nn2-c2ccc(I)cc2)cc1	inconclusive: 11.6 µM [cytotoxic, partial curve, poor fit]	
O=S(=O)(c1ccc(Cl)cc1)N1CCN(c2ccnc3cc(Cl)ccc23)CC1	active: 16.4 µM	
